# Counter-ions that a name gives are not always drawn. The list shows a part of the results. The data scatter; read single values as rough.
# Assays:
# Test in all cases: ALDHbr (CSC) cell proportion score relative to DMSO vehicle (ratio to DMSO); breast (SUM159) / gastric (MKN45) / pancreatic (PANC1) / colon cancer lines; ALDHbr cells have high ALDH activity and are rich in cancer stem cells (CSC); higher = more CSC (ALDHbr) cells remaining
# Conditions in all cases: 10 µM; 72 h
# MKN45 = tested on: MKN45
# PANC1 = tested on: PANC1
# SUM159 = tested on: SUM159
# T84 = tested on: T84
# 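Note: High-content imaging of ALDEFLUOR-stained cells with Hoechst-labelled nuclei in 384-well plates, triplicate wells, scored as Z-score against 0.1% DMSO vehicle, negative meaning fewer ALDHbr cells.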
SMILES,ALDHbr (MKN45),ALDHbr (PANC1),ALDHbr (SUM159),ALDHbr (T84)
O=C1NCC2(CCN(CCc3ccccc3)CC2)O1 [Fenspiride hydrochloride],0.953,0.956,0.941,0.914
COc1nc(C)nc(Cl)c1NC1=NCCN1 [Moxonidine],1.07,0.937,0.971,1.02
CCCCCOC(=O)Nc1nc(=O)n([C@@H]2O[C@H](C)[C@@H](O)[C@H]2O)cc1F [Capecitabine],1.18,0.878,0.946,0.8
CN(C)c1ccc(O)c2c1C[C@H]1C[C@H]3[C@H](N(C)C)C(=O)C(C(N)=O)=C(O)[C@@]3(O)C(=O)C1=C2O [Minocycline hydrochloride],0.433,0.508,0.372,0.967
CS(=O)(=O)Nc1ccc([N+](=O)[O-])cc1Oc1ccccc1 [Nimesulide],0.846,0.759,0.924,0.894
CC(=O)CC(c1ccccc1)c1c(O)c2ccccc2oc1=O (stereo unspecified) [Warfarin],0.896,0.826,0.954,1.18
CCCCC1(COC(=O)CCC(=O)O)C(=O)N(c2ccccc2)N(c2ccccc2)C1=O [Suxibuzone],0.949,0.778,0.815,0.935
COc1cc(NC(C)CCCN)c2ncccc2c1 (stereo unspecified) [Primaquine diphosphate],1.4,1.21,1.3,0.563
C[C@@H]1C[C@H]2[C@@H]3C[C@H](F)C4=CC(=O)C=C[C@]4(C)[C@@]3(F)[C@@H](O)C[C@]2(C)[C@@]1(O)C(=O)COC(=O)C(C)(C)C [Flumethasone pivalate],1.07,0.59,1.26,0.969
COc1ccc([C@@H]2Sc3ccccc3N(CCN(C)C)C(=O)[C@@H]2OC(C)=O)cc1 [Diltiazem hydrochloride],0.985,0.875,0.997,0.829
Cc1onc(-c2ccccc2)c1-c1ccc(S(N)(=O)=O)cc1 [Valdecoxib],0.79,0.859,1.34,0.972
COc1cc2nc(N3CCN(C(=O)c4ccco4)CC3)nc(N)c2cc1OC [Prazosin hydrochloride],0.226,0.812,1.03,1.14
OC(CCN1CCCC1)(c1ccccc1)C1CCCCC1 (stereo unspecified) [Procyclidine hydrochloride],1.05,1,0.946,1.01
N=C(N)N1CCc2ccccc2C1 [Debrisoquin sulfate],1.1,0.765,0.899,0.911
OCCN1CCN(CC/C=C2/c3ccccc3Sc3ccc(Cl)cc32)CC1 [Zuclopenthixol dihydrochloride],0.739,0.879,0.411,0.112
Cc1cccc(C)c1OCC(C)N (stereo unspecified) [Mexiletine hydrochloride],0.994,0.701,1.12,3.62
CCOc1nc2cccc(C(=O)O)c2n1Cc1ccc(-c2ccccc2-c2nnn[nH]2)cc1 [Candesartan],1.06,0.893,0.959,0.922

SMILES,ALDHbr (MKN45),ALDHbr (PANC1),ALDHbr (SUM159),ALDHbr (T84)
O=C(O)c1ccccc1C(=O)Nc1ccc(S(=O)(=O)Nc2nccs2)cc1 [Phthalylsulfathiazole],0.988,0.878,0.972,1.02
CCCCC1C(=O)N(c2ccccc2)N(c2ccccc2)C1=O [Phenylbutazone],1.26,0.987,1.02,0.947
C#CCN(C)CCCOc1ccc(Cl)cc1Cl [Clorgyline hydrochloride],0.544,0.908,1.09,0.887
CN(CCCCCCCCCCN(C)C(=O)Oc1cccc([N+](C)(C)C)c1)C(=O)Oc1cccc([N+](C)(C)C)c1 [Demecarium bromide],1.04,0.713,1.6,0.775
N=C(N)NCc1cccc(I)c1 [Iobenguane sulfate],0.94,1.04,1.48,1.13
CC(COc1ccccc1)N(CCCl)Cc1ccccc1 (stereo unspecified) [Phenoxybenzamine hydrochloride],0.934,1.01,0.94,1.16
NS(=O)(=O)c1cc(C(=O)O)c(NCc2ccco2)cc1Cl [Furosemide],1.08,0.946,0.984,0.864
CN(C)CCC(c1ccc(Cl)cc1)c1ccccn1 (stereo unspecified) [Chlorpheniramine maleate],0.986,0.859,0.943,0.795
Nc1nc(CC(=O)Nc2ccc(CCNC[C@H](O)c3ccccc3)cc2)cs1 [Mirabegron],1.01,0.838,2.25,0.916
Cc1cc2cc3c(C)cc(=O)oc3c(C)c2o1 [Trioxsalen],0.728,0.75,2.55,0.782
CCN(CC)CC(=O)Nc1c(C)cccc1C [Lidocaine hydrochloride],0.857,1.02,1.04,0.901
Cc1cccc(C)c1NC(=O)C1CCCCN1C (stereo unspecified) [Mepivacaine hydrochloride],1.45,0.982,1.09,1
O=C(O)c1cc(/N=N/c2ccc(S(=O)(=O)Nc3ccccn3)cc2)ccc1O [Sulfasalazine],0.963,1.04,1.06,0.791
CC(C)NNC(=O)c1ccncc1 [Iproniazide phosphate],0.989,0.875,0.931,0.967
CC(=O)c1ccc2c(c1)N(CCCN1CCC(CCO)CC1)c1ccccc1S2 [Piperacetazine],1.02,0.9,0.688,0.511
CN1CCCN=C1/C=C/c1cccc(O)c1 [Oxantel pamoate],0.981,0.934,0.799,0.977
CC1(C)S[C@@H]2[C@H](NC(=O)[C@H](NC(=O)N3CCNC3=O)c3ccccc3)C(=O)N2[C@H]1C(=O)O [Azlocillin sodium salt],1.07,0.9,1.06,1.02

# — the supplement of paper PMC11880418
